Measured values reported in the supplement of paper PMC12217912.
Some of the results follow. The full chains were built here from the parent and the listed change. Inactive controls read about 0.05.

B1: TEV protease; numbered along this chain (parent)
chain: MGESLFKGPRDYNPISSSICHLTNESDGHTTSLYGIGFGPFIITNKHLFRRNNGTLVVQSLHGVFKVKDTTTLQQHLVDGRDMIIIRMPKDFPPFPQKLKFREPQREERICLVTTNFQTKSMSSMVSDTSCTFPSGDGIFWKHWIQTKDGQCGSPLVSTRDGFIVGIHSASNFTNTNNYFTSVPKNFMELLTNQEAQQWVSGWRLNADSVLWGGHKVFMVKPEEPFQPVKEATQL

Variants of: B1
Experiment: raw area under fraction-flipped curve 0-4 h after induction (AUC4h, not background-subtracted), DNA-recorder readout of cleavage of the substrate (dimensionless); higher = more cleavage of the substrate by the protease variant
Conditions: temperature: 34 °C; time window: 0-4 h after rhamnose induction
Method: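 In vivo DNA recorder in E. coli TOP10(DE3) ΔrhaA at 34 °C. Each TEVp single-site mutant (parent TEVp 0) is paired with a single-site variant of the 7-mer TEVs (canonical ENLYFQ|S). The substrate sits between flexible linkers in a Bxb1-sfGFP-TEVs-SsrA fusion, so cleavage stabilises Bxb1 and speeds flipping of a recombination array, read by NGS. The value is the raw area under the fraction-flipped curve over 0-4 h after rhamnose induction (AUC4h), with ≥20 reads per time point. It is not background-subtracted; inactive controls average about 0.047.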
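Further: Bxb1 expression induced with 0.2% (w/v) L-rhamnose at OD600 near 0.5, cultures sampled hourly, flipped fraction per protease–substrate barcode pair counted by paired-end Illumina sequencing.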

Variant | area with substrate ENAYFQS | area with substrate ENCYFQS | area with substrate ENEYFQS | area with substrate ENFYFQS | area with substrate ENGYFQS | area with substrate ENHYFQS | area with substrate ENKYFQS | area with substrate ENMYFQS | area with substrate ENNYFQS | area with substrate ENPYFQS | area with substrate ENQYFQS | area with substrate ENSYFQS | area with substrate ENTYFQS | area with substrate ENVYFQS | area with substrate ENYYFQS | area with substrate ENDYFQS | area with substrate ENRYFQS | area with substrate ENIYFQS | area with substrate ENWYFQS
MGESLFKGPRDYNPISSSICHLTNESDGHTTSLYGIGFGPFIITNKHLFRRNNGTLVVQSLHGVFKVKDTTTLQQHLVDGRDMIIIRMPKDFPPFPQKLKFREPQREERICLVTTNFQTKSMSSMVSDTSCTFPSGDGIFWKHWIQTKDGQCPSPLVSTRDGFIVGIHSASNFTNTNNYFTSVPKNFMELLTNQEAQQWVSGWRLNADSVLWGGHKVFMVKPEEPFQPVKEATQL [G153P] | 0.0408 | 0.0506 | 0.0517 | 0.0596 | 0.0399 | 0.0423 | 0.0283 | 0.0372 | 0.0432 | 0.0321 | 0.0547 | 0.0424 | 0.048 | 0.0465 | 0.0538 | – | – | – | –
MGESLFKGPRDYNPISSSICHLTNESDGHTTSLYGIGFGPFIIHNKHLFRRNNGTLVVQSLHGVFKVKDTTTLQQHLVDGRDMIIIRMPKDFPPFPQKLKFREPQREERICLVTTNFQTKSMSSMVSDTSCTFPSGDGIFWKHWIQTKDGQCGSPLVSTRDGFIVGIHSASNFTNTNNYFTSVPKNFMELLTNQEAQQWVSGWRLNADSVLWGGHKVFMVKPEEPFQPVKEATQL [T44H] | 0.0394 | 0.059 | 0.0589 | 0.0526 | 0.0491 | – | 0.0504 | 0.0458 | 0.0487 | 0.0509 | 0.0422 | – | 0.0475 | 0.0466 | – | 0.053 | 0.0523 | – | –
MGESLFKGPRDYNPISSSICRLTNESDGHTTSLYGIGFGPFIITNKHLFRRNNGTLVVQSLHGVFKVKDTTTLQQHLVDGRDMIIIRMPKDFPPFPQKLKFREPQREERICLVTTNFQTKSMSSMVSDTSCTFPSGDGIFWKHWIQTKDGQCGSPLVSTRDGFIVGIHSASNFTNTNNYFTSVPKNFMELLTNQEAQQWVSGWRLNADSVLWGGHKVFMVKPEEPFQPVKEATQL [H21R] | 0.0494 | 0.0682 | 0.061 | – | – | 0.0568 | 0.0571 | 0.069 | 0.0708 | 0.0477 | 0.0609 | 0.0364 | 0.053 | 0.0718 | 0.0345 | 0.0599 | 0.0639 | 0.109 | 0.0561
MGESLFKGPRDYNPISSSICHLTNESDGHTTSLYGIGFGPFIITNKHLFRRNNGTLVVQSLHGVFKVKDTTTLQQHLVDGRDMIIIRMPKDFPPFPQKLKFREPQREERICLVTFNFQTKSMSSMVSDTSCTFPSGDGIFWKHWIQTKDGQCGSPLVSTRDGFIVGIHSASNFTNTNNYFTSVPKNFMELLTNQEAQQWVSGWRLNADSVLWGGHKVFMVKPEEPFQPVKEATQL [T115F] | 0.0634 | 0.0614 | 0.068 | – | – | 0.0622 | – | – | – | – | 0.0598 | 0.0591 | – | 0.0852 | – | 0.093 | – | 0.121 | –
MGESLFKGPRDYNPISSSICHLTNESDGHTTSLYGIGFGPFIITNKHLFRRNNGTLVVQSLHGVFKVKDTTTLQQHLVAGRDMIIIRMPKDFPPFPQKLKFREPQREERICLVTTNFQTKSMSSMVSDTSCTFPSGDGIFWKHWIQTKDGQCGSPLVSTRDGFIVGIHSASNFTNTNNYFTSVPKNFMELLTNQEAQQWVSGWRLNADSVLWGGHKVFMVKPEEPFQPVKEATQL [D79A] | 0.0833 | 0.0669 | – | 0.0695 | – | 0.0504 | – | 0.0867 | – | 0.0432 | – | – | – | – | 0.0578 | 0.0648 | 0.0559 | – | 0.06
MGESLFKGPRYYNPISSSICHLTNESDGHTTSLYGIGFGPFIITNKHLFRRNNGTLVVQSLHGVFKVKDTTTLQQHLVDGRDMIIIRMPKDFPPFPQKLKFREPQREERICLVTTNFQTKSMSSMVSDTSCTFPSGDGIFWKHWIQTKDGQCGSPLVSTRDGFIVGIHSASNFTNTNNYFTSVPKNFMELLTNQEAQQWVSGWRLNADSVLWGGHKVFMVKPEEPFQPVKEATQL [D11Y] | 0.0677 | 0.0772 | 0.0666 | 0.0658 | 0.0628 | 0.069 | 0.0574 | – | 0.05 | 0.0515 | 0.0403 | 0.0781 | 0.0569 | 0.0793 | – | 0.0587 | 0.064 | 0.0839 | –
MGESLFKGPRDYNPISSSICHLTNESDGSTTSLYGIGFGPFIITNKHLFRRNNGTLVVQSLHGVFKVKDTTTLQQHLVDGRDMIIIRMPKDFPPFPQKLKFREPQREERICLVTTNFQTKSMSSMVSDTSCTFPSGDGIFWKHWIQTKDGQCGSPLVSTRDGFIVGIHSASNFTNTNNYFTSVPKNFMELLTNQEAQQWVSGWRLNADSVLWGGHKVFMVKPEEPFQPVKEATQL [H29S] | 0.0562 | 0.0655 | 0.0239 | 0.0588 | 0.07 | 0.0589 | 0.0721 | – | 0.0684 | – | 0.0646 | 0.0557 | 0.0723 | 0.08 | 0.0584 | 0.0632 | – | – | –
MGESLFKGPRDYNPISSSICHLTNESDGHTTSLYGIGFGPFIITNKHLFRRNNGTLVVQSLHGVFKVKDTTTLQQHLVDGRDMIIIRMPKDFPPFPQKLKFREPQREERICLVTTNFQTKSMSSMVSDTSCTFPSGDGIFWKHWIQTKDGQCGSPCVSTRDGFIVGIHSASNFTNTNNYFTSVPKNFMELLTNQEAQQWVSGWRLNADSVLWGGHKVFMVKPEEPFQPVKEATQL [L156C] | 0.0702 | 0.082 | – | 0.0632 | – | – | – | 0.0832 | – | – | 0.0595 | 0.0617 | 0.075 | – | 0.0681 | 0.0338 | – | – | –
MGESLFKGPRDYNPISSSICHLTNESDGHTTSLYGIGFGPFIITNKHLFRRNNGTLVVQSLHGVFKVKDTTTLQQHLVDGRDMIIIRMPKDFAPFPQKLKFREPQREERICLVTTNFQTKSMSSMVSDTSCTFPSGDGIFWKHWIQTKDGQCGSPLVSTRDGFIVGIHSASNFTNTNNYFTSVPKNFMELLTNQEAQQWVSGWRLNADSVLWGGHKVFMVKPEEPFQPVKEATQL [P93A] | 0.0544 | 0.082 | 0.0408 | 0.0685 | 0.0712 | – | – | 0.0085 | 0.0598 | – | 0.0664 | 0.0654 | – | 0.0906 | – | 0.0552 | – | – | 0.0532
MGESLFKGPRDYNPISSSICHLTNESDGHTTSLYGIGFGPFIITNKHLFRRNNGTLVVQSLHGVFKVKDTTTLQQHLVDGRDMIIIRMPKDFPPFPQKLKFREPQREERICLVTTNFQTKSMSSMVSDTICTFPSGDGIFWKHWIQTKDGQCGSPLVSTRDGFIVGIHSASNFTNTNNYFTSVPKNFMELLTNQEAQQWVSGWRLNADSVLWGGHKVFMVKPEEPFQPVKEATQL [S130I] | 0.0537 | – | – | – | 0.0571 | – | 0.0583 | – | 0.0633 | 0.0603 | 0.065 | 0.0459 | – | – | 0.0669 | 0.0289 | – | – | 0.0386
